The results in this text go back to a collection of fitness landscapes (doi:10.1016/j.celrep.2020.107928).

B1: Caulobacter ParB omega fusion; a variant is named by its letters at X, in order, B8GW30 (parent)
chain: MESVVVGEPGMSEGRRGLGRGLSALLGEVDAAPAQAPGEQLGGSREAPIEILQRNPDQPRRTFREEDLEDLSNSIREKGVLQPILVRPSPDTAGEYQIVAGERAWRAAQRAGLKTVPIMVRELDDLAVLEIGIIENVQRADLNVLEEALSYKVLMEKFERTQENIAQTIGKSXSHVANXMRLLXLPDEVQSYLVSGELTAXHARAIAAAADPVALAKQIIEGGLSVRETEALARKAPNLSAGKSKGGRPPRVKDTDTQALESDLSSVLGLDVSIDHRGSTGTLTITYATLEQLDDLCNRLTRGI

The full ranking holds about 81,000 sequences; the median of “one-hybrid fitness for binding NBS DNA” is about -0.1, and the highest 2% start at about 0.36. The list shows a part of the results. Some results are limits rather than exact numbers.

The test covers variants of B1. Description: one-hybrid fitness for binding NBS DNA (the Noc-binding site; scaled: cognate 1, non-cognate 0); higher = stronger binding. The note with it: with NBS DNA site. In a few lines:
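Selection: bacterial one-hybrid in E. coli USO, HIS3 reporter with the site 19 bp from the promoter, 48 hours at 37°C on M9-minus-histidine plus 0.1 mM IPTG and 5 mM 3-AT. Libraries were Caulobacter ParB with four randomised specificity codons, sequenced on Illumina before and after selection. Fitness is the rescaled log change in variant-to-wild-type read ratio, anchored to the cognate and non-cognate sites.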
Take PEPS: the “one-hybrid fitness for binding NBS DNA” value is not above 0.2.
As to LKNY, the “one-hybrid fitness for binding NBS DNA” value is not above 0.2.
In the case of LCTR, the “one-hybrid fitness for binding NBS DNA” value was not above 0.2.
With PCAC, the “one-hybrid fitness for binding NBS DNA” value is not above 0.2.
In the case of LIRR, the “one-hybrid fitness for binding NBS DNA” value was not above 0.2.
In the case of KGWS it was not above 0.2.
In the case of MRTL, the “one-hybrid fitness for binding NBS DNA” value was not above 0.2.
In the case of RDRW it was not above 0.2.
As for AWHA, the “one-hybrid fitness for binding NBS DNA” value is not above 0.2.
Then ANSC, with not above 0.2; and NPAA, with not above 0.2; and TWWG, with not above 0.2.
Regarding RWDF, the “one-hybrid fitness for binding NBS DNA” value is not above 0.2.
As to NHTL, the “one-hybrid fitness for binding NBS DNA” value was not above 0.2.
Then FGYR, with not above 0.2; and QRNV, with 0.453; and KCSK, with not above 0.2.
In the case of TSMV it was not above 0.2.
For IIEV, the “one-hybrid fitness for binding NBS DNA” value was not above 0.2.
In the case of LLVC it was not above 0.2; in that of NRTN, not above 0.2.
Turning to YTPR, the “one-hybrid fitness for binding NBS DNA” value is not above 0.2.
In the case of SGMR it was not above 0.2; in that of LQRP, not above 0.2.
Turning to MPAQ, the “one-hybrid fitness for binding NBS DNA” value is not above 0.2.
With MNMA, the “one-hybrid fitness for binding NBS DNA” value is not above 0.2.
Consider LNSV, for which the “one-hybrid fitness for binding NBS DNA” value was not above 0.2.
Take PFKV: the “one-hybrid fitness for binding NBS DNA” value was not above 0.2.
With NDQE, the “one-hybrid fitness for binding NBS DNA” value was not above 0.2.
LDTF: the “one-hybrid fitness for binding NBS DNA” value was not above 0.2.
On to PLRC, for which the “one-hybrid fitness for binding NBS DNA” value is not above 0.2.
On to IEDE, for which the “one-hybrid fitness for binding NBS DNA” value is not above 0.2.
Then CWHL, with not above 0.2; and LLMT, with not above 0.2; and LIGN, with not above 0.2.
Consider KMTR, for which the “one-hybrid fitness for binding NBS DNA” value is not above 0.2.
With YWHY, the “one-hybrid fitness for binding NBS DNA” value is not above 0.2.
Consider FRER, for which the “one-hybrid fitness for binding NBS DNA” value is not above 0.2.
DAFP: the “one-hybrid fitness for binding NBS DNA” value was not above 0.2.
As for RRKH, the “one-hybrid fitness for binding NBS DNA” value amounted to 0.798.
As to KSPC, the “one-hybrid fitness for binding NBS DNA” value is not above 0.2.
Then HVHS, with not above 0.2; and RKFR, with 0.443; and EKHT, with not above 0.2.
For PAVR, the “one-hybrid fitness for binding NBS DNA” value is not above 0.2.
Turning to QMDR, the “one-hybrid fitness for binding NBS DNA” value came to 0.403.
Regarding SESK, the “one-hybrid fitness for binding NBS DNA” value is not above 0.2.
In the case of RYQD it was not above 0.2; in that of RGHK, not above 0.2; in that of SLYT, not above 0.2.
Consider YRIS, for which the “one-hybrid fitness for binding NBS DNA” value was not above 0.2.
For the variant VGWG, the “one-hybrid fitness for binding NBS DNA” value is not above 0.2.
For the variant FCPC, the “one-hybrid fitness for binding NBS DNA” value was not above 0.2.
NKLR: the “one-hybrid fitness for binding NBS DNA” value is not above 0.2.
In the case of PAGE it was not above 0.2; in that of RMKE, not above 0.2; in that of DDRV, not above 0.2.
As to RAMN, the “one-hybrid fitness for binding NBS DNA” value is not above 0.2.
Then VRRI, with not above 0.2; and TKPP, with not above 0.2.
In the case of IWTC it was not above 0.2; in that of MNRD, not above 0.2.
As for EADV, the “one-hybrid fitness for binding NBS DNA” value is not above 0.2.
Regarding QCAN, the “one-hybrid fitness for binding NBS DNA” value was not above 0.2.
For the variant PPSA, the “one-hybrid fitness for binding NBS DNA” value is not above 0.2.
For RLHF, the “one-hybrid fitness for binding NBS DNA” value is not above 0.2.
Take VLYS: the “one-hybrid fitness for binding NBS DNA” value is not above 0.2.
As for YNGL, the “one-hybrid fitness for binding NBS DNA” value is not above 0.2.
For the variant GNLP, the “one-hybrid fitness for binding NBS DNA” value is not above 0.2.
For the variant KYFM, the “one-hybrid fitness for binding NBS DNA” value was not above 0.2.
Then CCDY, with not above 0.2; and NMNV, with not above 0.2; and HVRC, with not above 0.2.
As for AKST, the “one-hybrid fitness for binding NBS DNA” value is not above 0.2.
As to CVDD, the “one-hybrid fitness for binding NBS DNA” value was not above 0.2.
Then GITM, with not above 0.2; and TSMK, with not above 0.2; and LNMV, with not above 0.2.
With RGVR, the “one-hybrid fitness for binding NBS DNA” value is not above 0.2.
Consider MWAI, for which the “one-hybrid fitness for binding NBS DNA” value is not above 0.2.
In the case of RWKF, the “one-hybrid fitness for binding NBS DNA” value was not above 0.2.
For EYQR, the “one-hybrid fitness for binding NBS DNA” value was not above 0.2.
Turning to NLVC, the “one-hybrid fitness for binding NBS DNA” value was not above 0.2.
For the variant HNNF, the “one-hybrid fitness for binding NBS DNA” value was not above 0.2.
